Measurements: the supplement of paper PMC3334620
Over roughly 33,000 sequences, “E-score (-0.5 to 0.5)” has its median near -0.054; the highest 2% begin near 0.39. The list shows a part of the results.

Target: Ylr278c (UniProt Q05854)
Assay: PBM E-score (8-mer binding enrichment) (E-score (-0.5 to 0.5)); higher = stronger / more preferred TF binding; most listed sequences are background and not binding sites
Settings: protein concentration: 200 nM; construct: GST-DNA-binding domain
Outline: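 Detection of bound protein used fluorescent anti-GST, with scans normalised by masliner. The proteins were GST-tagged yeast transcription factors applied at about 100-200 nM to universal all-10-mer Agilent arrays made double-stranded by primer extension. Each ungapped eight-base word, pooled with its reverse complement, was scored with an E-score from the Universal PBM Analysis Suite.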

| Sequence | PBM E-score |
| --- | --- |
| AGCAGACT | -0.283 |
| CTATTTCC | 0.249 |
| CAGACTGA | -0.166 |
| CACACCCC | -0.00534 |
| ACATACGT | -0.185 |
| ATAGGTCA | -0.115 |
| AGGGGGTG | -0.148 |
| CGCCTGAA | -0.0702 |
| GAATTTAC | 0.14 |
| ACAATGAC | -0.195 |
| ACAGGCTG | -0.38 |
| ACGGGAAA | 0.236 |
| GACAAGGC | 0.0854 |
| AATAACTG | -0.0254 |
| GCTCGAGC | 0.164 |
| AATCGGAC | 0.397 |
| CCACTGTA | -0.247 |
| ACTGAGCG | -0.265 |
| GGCGTGAA | -0.0348 |
| CAGCGGCA | -0.0688 |
| AAGTCCAC | -0.192 |
| GCGTATCA | -0.129 |
| ACCAGTGA | -0.225 |
| GAATTGAA | 0.11 |
| CTAGCCTC | -0.225 |

| Sequence | PBM E-score |
| --- | --- |
| CGACTTGA | -0.133 |
| TGACAGCA | -0.0319 |
| CACACTAG | -0.103 |
| ACGACGTG | -0.214 |
| GGCTACAA | -0.143 |
| ACGAATGA | 0.00735 |
| GTTCAAGA | -0.0811 |
| GCCTACCC | -0.184 |
| ATCGGAAA | 0.416 |
| GCCCTACC | -0.131 |
| CCGCCGTC | 0.218 |
| ATGGAGCA | -0.0944 |
| AACTCCTC | 0.0657 |
| GCGGCATA | 0.166 |
| TACTTACA | -0.254 |
| TAATGAAA | -0.0666 |
| AGGACATC | 0.0899 |
| CAGGCGAG | -0.243 |
| ATGGTGGG | -0.0929 |
| CGCGCAGA | 0.141 |
| GGACCCGA | 0.261 |
| GTGACAAA | -0.0345 |
| TAAATACA | -0.0956 |
| TCGTGAAA | -0.0818 |
| AACTCTCG | -0.0171 |

| Sequence | PBM E-score |
| --- | --- |
| TGTGCTAA | 0.223 |
| GGACTTTA | 0.275 |
| AACCTTAG | -0.151 |
| CCCCGCCA | 0.356 |
| AGTATGCG | 0.0748 |
| CAGTTATG | -0.0878 |
| AGGCGTCG | -0.0177 |
| GCACCCGA | 0.133 |
| AACGTGCT | -0.224 |
| AAATAATA | 0.11 |
| AGACTTAT | -0.228 |
| ACCAACGG | 0.203 |
| AGCGGTTG | -0.164 |
| CGGCAGAC | 0.194 |
| AGCAGGGG | -0.0903 |
| ATGGTGCC | -0.0823 |
| CTGTGCTC | -0.0371 |
| GAACTCAA | 0.00625 |
| GAAAGGGA | -0.0978 |
| GCACTAAC | -0.105 |
| AGCGGCTG | -0.14 |
| AATTTTGT | 0.127 |
| AGCACGAC | -0.174 |
| AATTCAGC | -0.0865 |
| ATCCTGGC | -0.167 |

| Sequence | PBM E-score |
| --- | --- |
| CACAGTCC | -0.00317 |
| ACCTCATG | -0.349 |
| GCCGCAGC | 0.203 |
| GGAGAATA | 0.189 |
| CAGAAGCG | 0.0377 |
| CGTGCGGC | 0.163 |
| GTTTTAAA | -0.0723 |
| GCGGGTGA | 0.0824 |
| GTGTCCAA | -0.0567 |
| GTAATTAC | 0.216 |
| ACCGTAGC | -0.127 |
| GATATTTA | -0.0205 |
| CGTCAACC | 0.0223 |
| TAGTTGCA | -0.0056 |
| CAGGGAGG | -0.223 |
| CCACGACA | -0.017 |
| ACGCTGGA | -0.059 |
| CTGTTATC | -0.0896 |
| CCACTACG | -0.00618 |
| GGTGGGCA | -0.0418 |
| AAACGTCA | -0.25 |
| ATTCGGTC | 0.083 |
| GAGACAGA | 0.0483 |
| CAACGCGA | 0.0417 |
| ACGGACGC | 0.251 |

| Sequence | PBM E-score |
| --- | --- |
| ACCGCGCA | 0.143 |
| GAACGAGA | 0.0584 |
| GTTGGCCA | -0.0678 |
| CCGGCGCG | 0.375 |
| TATGTAAA | 0.0517 |
| ATCATCAG | -0.114 |
| AGTATCAA | -0.0292 |
| CCGCTTCG | 0.116 |
| CGGTTGGA | -0.0594 |
| AACAAGCA | 0.0514 |
| ATTGCAGG | -0.0911 |
| TTTACAAA | -0.181 |
| ATTGAAAT | 0.0209 |
| AGATGGTG | -0.214 |
| ACATAACG | 0.023 |
| CCCCGTGC | 0.295 |
| CCTTTATA | -0.193 |
| TACGACAA | -0.0244 |
| CGCGTACC | -0.0449 |
| ACCACTCC | 0.317 |
| AGAAGATG | -0.00349 |
| ACAGGTAT | -0.112 |
| GTGCGAAC | 0.0832 |
| AGCCTTTA | -0.156 |
| ATCGCGGA | 0.299 |

| Sequence | PBM E-score |
| --- | --- |
| CTACAGTC | -0.194 |
| AGATCCGG | 0.41 |
| CCATGTTC | -0.0504 |
| AAAAGAAT | 0.0663 |
| GACGCGAA | -0.0214 |
| ACGCACGT | -0.0259 |
| ACGATAGA | -0.285 |
| CTGCAGTA | -0.167 |
| TCTAAAAA | -0.0525 |
| ACCTTTTC | -0.212 |
| GTTTGACA | -0.111 |
| CCCGCCGC | 0.314 |
| TGAAAGAA | -0.15 |
| AAGGGGAG | -0.0262 |
| CGGGTAGA | -0.143 |
| CATCACCA | -0.174 |
| ATTTGCGA | -0.0807 |
| CCTCCACG | -0.0547 |
| CTACCGAC | 0.0867 |
| GCCCAGCC | -0.157 |
| AAAACGGT | -0.139 |
| ATTTTGAC | -0.122 |
| ACTGATCC | -0.109 |
| AACCACCC | -0.0603 |
| GACTATAA | -0.0512 |

| Sequence | PBM E-score |
| --- | --- |
| CTGAAACC | 0.0858 |
| AAACAAAT | -0.0381 |
| GCAAAACC | 0.0525 |
| CAATTACG | -0.231 |
| AATCACAG | -0.199 |
| CCCTAGAA | -0.264 |
| CAGAACGG | -0.0676 |
| ACACGTAT | -0.186 |
| CGTCCCGA | 0.106 |
| CGAAATTC | 0.25 |
| AAGTACCT | -0.166 |
| ACGATCAC | -0.0976 |
| ATGCTGGC | -0.147 |
| AATAGCCC | -0.149 |
| ATTGGTTA | -0.0204 |
| CGGAAATA | 0.451 |
| AACTGCTT | -0.0718 |
| ACGCCGCG | 0.29 |
| TACGCGGA | 0.309 |
| AGAATGTA | -0.0845 |
| CCCGAACA | 0.195 |
| GGTTGCAA | -0.131 |
| ACTGAACA | -0.135 |
| GAGGATAA | -0.0908 |
| TACACATA | -0.114 |

| Sequence | PBM E-score |
| --- | --- |
| AGGTAGCG | -0.0627 |
| AGGGCTGA | -0.181 |
| AGCAAGAG | -0.286 |
| GCATATGC | 0.0168 |
| ACGCCGGC | 0.421 |
| AAGTAAAT | -0.00262 |
| CTGCTTTC | -0.0475 |
| ATGGACAC | -0.084 |
| AGGGCCGA | 0.236 |
| CGGTAGCA | -0.0988 |
| ACGCGGCA | 0.101 |
| CAGGATGC | -0.0309 |
| AAGCATGC | -0.372 |
| AGCTGTGC | -0.114 |
| GAAAAGAA | -0.0411 |
| ATTTTCCC | 0.063 |
| GGCACACC | -0.12 |
| CGACTAAG | -0.0283 |
| GTATTTAA | -0.116 |
| TCTACGAA | -0.28 |
| TCTGCAGA | -0.0892 |
| ATTTGATA | -0.0839 |
| AGCATACT | -0.214 |
| AGATCTAG | -0.266 |
| CCATACTA | -0.138 |

| Sequence | PBM E-score |
| --- | --- |
| CTCGTACC | -0.0986 |
| GCCTCGAC | -0.211 |
| ACGTAAGG | -0.264 |
| ATAGATAT | -0.148 |
| ACAACCTG | -0.21 |
| ATACACCA | -0.143 |
| AGTGGGAG | -0.221 |
| AGTGTCGC | 0.0239 |
| CTATGGGA | -0.069 |
| AAGTGCCC | -0.0455 |
| ACCTTTCA | -0.0627 |
| GACGATCC | 0.142 |
| ACGCGGCG | 0.322 |
| GTCCTAGA | -0.112 |
| AAACCATG | -3e-05 |
| TGACGTCA | 0.0129 |
| AGAACAGC | -0.0516 |
| ATCATAGC | -0.0366 |
| GAACTACC | 0.0269 |
